Measurements reported in PubChem BioAssay AID1030 (National Center for Advancing Translational Sciences (NCATS), 2008).
Screen size: about 220,000 compounds; about 16,000 (7.3%) were called active. The inconclusive results got no clear call from the source; some entries with a clear call stand among them for comparison. The call rests on the fitted dose curve; in most records, active means well fitted inhibition curve with a large enough effect (not every such curve was filed as active); inconclusive means small, poorly fitted or top-dose-only effect, or another doubt; inactive means no such curve, though single readings can be large or run the other way. Potencies of inconclusive entries are left out as doubtful fits.

What follows are molecules tested against Aldehyde dehydrogenase 1A1 (Homo sapiens) (UniProt P00352) (assay: qHTS Assay for Inhibitors of Aldehyde Dehydrogenase 1 (ALDH1A1)). Settings: Purified ALDH1A1, NADH fluorescence, propionaldehyde substrate; series mostly up to 75.3 µM; activity, negative = inhibition: at the top concentration.
UniProt P00352, sequence (P00352 whole entry, looked up): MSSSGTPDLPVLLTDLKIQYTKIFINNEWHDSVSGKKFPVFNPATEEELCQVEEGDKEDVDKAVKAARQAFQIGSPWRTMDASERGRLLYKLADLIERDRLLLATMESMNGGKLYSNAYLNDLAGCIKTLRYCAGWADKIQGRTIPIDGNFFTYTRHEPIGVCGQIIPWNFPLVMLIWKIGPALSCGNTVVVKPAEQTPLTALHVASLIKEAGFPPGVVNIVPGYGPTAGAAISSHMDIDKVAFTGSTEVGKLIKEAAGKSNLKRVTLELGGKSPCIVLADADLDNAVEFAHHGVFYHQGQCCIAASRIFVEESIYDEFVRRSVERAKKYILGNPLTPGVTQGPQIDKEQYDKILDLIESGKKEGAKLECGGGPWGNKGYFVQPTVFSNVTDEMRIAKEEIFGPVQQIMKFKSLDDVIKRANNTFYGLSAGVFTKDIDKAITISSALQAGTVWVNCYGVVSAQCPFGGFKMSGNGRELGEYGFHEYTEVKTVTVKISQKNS
Potency means the concentration at half of the fitted maximal effect; tags describe the fitted curve by direction and shape.
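Wherever activity, negative = inhibition is given: plate controls were no enzyme wells and a reference inhibitor.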

| SMILES | activity, negative = inhibition | Potency |
| --- | --- | --- |
| COc1cccc(NC(=O)CSc2nc3ccccc3cc2Cc2ccccc2)c1 | inactive: 5.62% |  |
| Cc1c(C(=S)NC(=O)C2CC2)c(=O)n(-c2ccccc2)n1C |  | active: 17.8 µM |
| Cn1c(SCC(=O)N2c3ccccc3CCc3ccccc32)nnc1-c1cc2ccccc2cc1O |  | inconclusive [inhibitor, single point] |
| O=C(O)c1ccc(CN2C(=O)CSC2=S)cc1 |  | active: 12.6 µM |
| CCOc1ccc(NC(=O)c2ccc3c(SCC(=O)O)c4c(nc3c2)CCCC4)cc1 |  | inconclusive [inhibitor, single point] |
| COCCNC(=O)c1cnn2c(C(F)F)cc(-c3ccccc3)nc12 |  | inconclusive [inhibitor, single point] |
| O=S(=O)(Cc1cc(Sc2ccccc2)nc(-c2ccccc2)n1)c1ccccc1 |  | inconclusive [inhibitor, full curve] |
| FC(F)(F)c1ccc(N2CCN(c3ncnc4c3nnn4Cc3ccccc3Cl)CC2)cc1 |  | inconclusive [inhibitor, partial curve] |
| COc1ccc(/C=C/C(=O)N(C)Cc2cccs2)cc1S(=O)(=O)N1CCOCC1 |  | inconclusive [inhibitor, partial curve] |
| COC(=O)C1=C(C(=O)OC)[C@@H]2N(C)c3ccccc3[C@@]23C[C@@H](C(=O)OC)N(S(=O)(=O)c2ccc4c(c2)OCCN4C)C3=N1 |  | inconclusive [inhibitor, single point] |
| CN1/C(=C\C=N\NC(=O)c2ccc(O)cc2)C(C)(C)c2ccccc21 | inactive: 2.18% |  |
| O=C(Nc1cccc(Cl)c1)Nc1ccccc1C(=O)NCc1ccco1 |  | inconclusive [inhibitor, single point] |
| CC1(C)CC(=O)c2cnc3c(C#N)cnn3c2C1 |  | inconclusive [inhibitor, partial curve] |
| Nn1c(SCC(=O)NC(=O)Nc2ccc3c(c2)OCCO3)nnc1C1CC1 | inactive: 5.73% |  |
| Cc1ccc(CNC(=O)c2cc(COc3c(F)cccc3F)on2)s1 |  | inconclusive [inhibitor, single point] |
| Cc1ccc(C2C(C#N)=C(N)Oc3c2sc2ccccc32)o1 (stereo not drawn) |  | inconclusive [inhibitor, partial curve] |
| CCC(=O)N1c2ccccc2-c2nnc(SC)nc2OC1c1ccc(N(C)C)cc1 (stereo not drawn) |  | active: 15.8 µM |
| Cc1ccc(F)c(NC(=O)c2ccc(Cn3cc(Cl)cn3)cc2)c1 |  | inconclusive [inhibitor, single point] |
| COc1ccc(Br)cc1/C=N/NC(=O)c1cccc(S(=O)(=O)N2CCOCC2)c1 |  | inconclusive [inhibitor, partial curve, poor fit] |
| CNC(=O)C(Sc1ccccc1)c1ccccc1 (stereo not drawn) | inactive: -0.879% |  |
| Cc1c(C(=O)O)oc2ccc(S(=O)(=O)NCc3ccc4c(c3)OCO4)cc12 |  | inconclusive [inhibitor, partial curve] |
| CC1=C(CC(=O)c2ccc(Cl)cc2)C(=O)c2ccccc2C1=O |  | active: 2.51 µM |
| COc1ccc(C(C)=O)cc1CSc1nc2ccccc2c(=O)n1-c1cccc(C)c1 |  | inconclusive [inhibitor, partial curve] |
| C=CCN1CN(CCc2ccccc2)CNC1=S |  | inconclusive [inhibitor, single point] |
| Cn1c(N)c(C(=O)COC(=O)c2ccco2)c(=O)n(C)c1=O | inactive: -12.5% |  |

| SMILES | activity, negative = inhibition | Potency |
| --- | --- | --- |
| CC1CCCCN1CCCNC(=O)c1ccc(Cc2nc3ccccc3[nH]2)cc1 (stereo not drawn) | inactive: 3.73% |  |
| C=C(C)C1CC=C(CN2CC(C)OC(C)C2)CC1 (stereo not drawn) |  | inconclusive [inhibitor, single point] |
| O=C(O)/C=C/c1cccc(OCc2ccccc2)c1 |  | inconclusive [inhibitor, single point] |
| Cc1nc2c(-c3ccc(Cl)cc3)c(C)[nH]n2c(=O)c1Cc1ccccc1 |  | inconclusive [inhibitor, single point] |
| Cc1cccc(-n2c(CNC(=O)Cc3ccccc3)n[nH]c2=S)c1 | inactive: -4.16% |  |
| CCOC(=O)c1ccccc1NC(=O)CSc1nnc(COc2ccccc2C)n1C | inactive: -2.64% |  |
| O=C(NNc1ncccc1Cl)c1c(Cl)cccc1Cl | inactive: 16.4% |  |
| Cc1ccc(/C=C/C2=NN(Cc3ccccc3)C(=O)CC2)cc1 |  | inconclusive [inhibitor, partial curve] |
| CSc1ncccc1C(=O)OCC(=O)c1ccccc1Br |  | inconclusive [inhibitor, single point] |
| COc1cc(C(=O)Nc2nc(-c3cccs3)cs2)cc(OC)c1OC |  | inconclusive [inhibitor, single point] |
| COc1ccc(-n2c(=O)cnc3cnc(Oc4cccc(Cl)c4)nc32)cc1 |  | inconclusive [inhibitor, partial curve] |
| N#Cc1c(NC(=O)c2cnn3cccnc23)sc2c1CCCC2 |  | active: 12.6 µM |
| NS(=O)(=O)c1ccc(CCNC(=O)c2ccc(S(=O)(=O)N3CCCCC3)cc2)cc1 |  | inconclusive [inhibitor, partial curve] |
| Cc1ccc(C(=O)n2c(N)nc3ccccc32)cc1 | inactive: 6.98% |  |
| COc1ccc(NS(=O)(=O)c2ccc3oc4ccccc4c3c2)cn1 |  | active: 8.91 µM |
| Cc1ccc(Nc2nc(N)nc(CN3CCN(c4ccccc4F)CC3)n2)cc1 |  | active: 31.6 µM |
| Cn1c(=O)cc(OCC(=O)N2CCC(N3CCCCC3)CC2)c2ccccc21 | inactive: 3.74% |  |
| CC(=O)Nc1sc(/C(C#N)=C\c2cccc(Cl)c2)nc1-c1ccc(C)cc1 |  | inconclusive [inhibitor, single point] |
| COCCNC(=O)CN1CCCCCC1 |  | inconclusive [inhibitor, single point] |
| Cc1ccc(NC(=O)c2cc(C(C)(C)C)nn2Cc2ccccc2)cc1 | inactive: -5.49% |  |
| N#CCCSCc1ccc2oc(C(=O)O)cc2c1 |  | inconclusive [inhibitor, single point] |
| CC1(C)OC2C(CO)OC(n3cnc4c(=S)nc[nH]c43)C2O1 (stereo not drawn) |  | inconclusive [inhibitor, single point] |
| O=C(O)C1CC(=O)n2c(nc3ccccc32)S1 (stereo not drawn) |  | active: 25.1 µM |
| O=[N+]([O-])c1cc2c(cc1/C=N\NS(=O)(=O)c1ccccc1)OCO2 |  | active: 1.58 µM |
| O=C(CN1CCN(C(=O)c2ccccc2)CC1)Nc1ncc(Br)cc1Br |  | inconclusive [inhibitor, partial curve] |

| SMILES | activity, negative = inhibition | Potency |
| --- | --- | --- |
| Cc1nc(SCC(=O)NC(C)(C#N)C2CC2)c2c(-c3cccs3)csc2n1 (stereo not drawn) | inactive: -12.2% |  |
| N#CCc1ccc(NC(=O)/C=C/c2ccc([N+](=O)[O-])o2)cc1 |  | active: 20 µM |
| CCN1CCN(C(=O)c2cc3c(=O)n(C)c4ccccc4c3n2C)CC1 |  | inconclusive [inhibitor, single point] |
| NC(=O)c1cc([N+](=O)[O-])ccc1NCCN1C(=O)c2ccccc2C1=O |  | inconclusive [inhibitor, full curve] |
| CCCCOc1ccc(C(O)(CC)CCN2CCOCC2)cc1 (stereo not drawn) |  | active: 7.94 µM |
| CC(=O)N1N=C(c2ccccc2)OC1c1cccnc1 (stereo not drawn) | inactive: -7.83% |  |
| Cn1c(Cc2csc(N)n2)nnc1SCC(=O)NC1CCCCC1 |  | inconclusive [inhibitor, partial curve] |
| c1ccc(CCc2nc(-c3cccnc3)no2)cc1 | inactive: -1.55% |  |
| CC(=O)c1ccc(NS(=O)(=O)c2ccc3ccccc3c2)cc1 |  | inconclusive [inhibitor, partial curve] |
| O=C(NC1CC1)C1CCN(c2ncnc3c2sc2cccc(F)c23)CC1 |  | inconclusive [inhibitor, single point] |
| CCOc1ccccc1C1CC(=O)Nc2cc(OC)c(OC)c(OC)c21 (stereo not drawn) |  | inconclusive [inhibitor, single point] |
| Cn1cnnc1SCc1ccc(C(=O)N=Nc2c(O)n(Cc3ccc(Cl)cc3)c3ccccc23)cc1 |  | inconclusive [inhibitor, single point] |
| Cc1ccc(Nc2c3c(nc4ncnn24)CCC3)cc1 |  | inconclusive [inhibitor, single point] |
| O=C1c2cc(Br)ccc2O[C@@H](c2ccc3c(c2)OCO3)[C@@H]1O | inactive: 0.287% |  |
| CC(C)Cn1c(N)c(C(=O)COC(=O)C2CC(=O)N(Cc3ccccc3Cl)C2)c(=O)n(C)c1=O (stereo not drawn) |  | inconclusive [inhibitor, single point] |
| COc1ccc2nc(NC(=S)NC(=O)c3ccco3)sc2c1 |  | inconclusive [inhibitor, single point] |
| O=C(Nc1nc(-c2ccc(F)cc2)cs1)c1cnccn1 | inactive: 6.14% |  |
| Cc1nc2cnc(N3CCNCC3)nc2n(Cc2cccs2)c1=O |  | inconclusive [inhibitor, single point] |
| Cc1cc(-c2nn(-c3ccccc3)cc2/C=C2\SC(N)=NC2=O)ccc1OC(C)C |  | inconclusive [inhibitor, partial curve] |
| Cn1c(N)c(C(=O)COC(=O)CCc2ccccc2)c(=O)n(C)c1=O |  | inconclusive [inhibitor, single point] |
| N#CC1=C(N)Oc2cc(O)ccc2C1c1ccccc1 (stereo not drawn) |  | inconclusive [inhibitor, partial curve] |
| O=C(CSc1nc2[nH]ncc2c(=O)n1-c1ccccc1Br)NCc1ccco1 |  | active: 12.6 µM |
| CCCCC[C@H](O)/C=C/[C@@H]1[C@@H](CC(=O)CCC(=O)O)[C@@H](O)C[C@H]1O | inactive: 3.43% |  |
